# Test results from the supplement of paper PMC11417369.
# ± gives the standard deviation of the averaged measurements. The list shows a part of the results.
# Tested on: PfAP2-LT AP2 domain (GST-tagged)
# Experiment: gcPBM binding intensity (ln(normalized median fluorescence intensity)); higher = stronger DNA binding
# Method in brief: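 Probes on an Agilent 4 × 180k array were primer-extended, double-stranded and 36 bp long, taken from intergenic genomic regions, with negative controls added. GST-tagged P. falciparum DNA-binding domains from E. coli, about 25 μg on average, were applied to the array for 1 h in 1× PBS containing 1% milk, 0.2 mg/ml BSA, 0.5% salmon testes DNA and 0.03% Triton X-100. Binding intensity, obtained after Alexa488 anti-GST antibody detection and a 488 nm scan, is the highest Masliner-normalised natural-log median intensity across replicate spots of either probe orientation.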
row,Sequence,gcPBM binding intensity (ln)
1,AATGATATTATCTCTTCACACACTCACATACAGACA [CACACA_site8335],9.12 ± 0.3
2,AATATGATTATTACCCGTACATATTACCTTATGGTA [XGTACX_site1714],8.85 ± 0.42
3,TTTTAAAAAAATAAAAAATAATAAAAAAAATAAAAA [CACACA_negctrl_site1693],8.21 ± 0.47
4,AAAAATAAATAAAGTGGTACATAAAAAAGAGAAATT [XGTACX_site874],9.01 ± 0.54
5,GTGCATATGTAGATATGTACATATTTATTTATTATT [XGTACX_site7343],8.89 ± 0.31
6,TTTACAGATACATTCACACATAAATTCATGTATAAT [CACACA_site5387],8.78 ± 0.37
7,ATATATAATTTTTGTTGTACATTATAAAAATAATTA [XGTACX_site2738],8.29 ± 0.21
8,ATTGTTATGAGAACAGCACACAAGCTACATCATATA [CACACA_site8192],8.96 ± 0.36
9,GCGGCGGTATCATGCACACGTATATATTGTAACAGT [CACACA_site4958],9.43 ± 0.43
10,TCATTGAAAAAAATGTGTACTCATCAAGTATATATT [XGTACX_site6430],8.69 ± 0.43
11,ATTATATAATTGTCTTCACACACACCGATATATATA [CACACA_site8883],9.58 ± 0.38
12,ATAAGAAAAAAGAACTGTACTAATAAAATATAAAAA [XGTACX_site3715],8.65 ± 0.59
13,ATACATAAAATTAAAACACACATTTGATTAAATACG [CACACA_site7088],8.92 ± 0.4
14,ATCAAGCGCAATGTGGTGCGTAAATTTTGTATTATA,8.87 ± 0.45
15,GTCTAAGCTTATAGGCGTACACATGAATATGGATGT [XGTACX_site2439],9.04 ± 0.4
16,GGATTTATTATATATACACACATACATATATATATA [CACACA_site8669],9.12 ± 0.18
17,AGTATACGAATAAAATGTACATACAAATTGTTGTAA [XGTACX_site36],8.94 ± 0.48
18,TATATATATATATCCACACACATACAGATATTAAGA [CACACA_site4214],9.35 ± 0.15
19,TCCTTAAAATATATCACACATTTCGTTCATTTATAA [CACACA_site4346],8.71 ± 0.43

row,Sequence,gcPBM binding intensity (ln)
1,ATATATATATATATATGTACATATATATACATATAT [XGTACX_site6987],9.69 ± 0.38
2,ATTCACGTGTCTTAAAAAAAAAAAAAAGAAAAAAAG [CACACA_negctrl_site573],8.35 ± 0.46
3,ATAATATATATACAAACACACAATTGTGTCCACATT [CACACA_site1747],9.36 ± 0.46
4,TGTACATATATATAATATATATATCATCATATTTTC [CACACA_negctrl_site1750],8.77 ± 0.42
5,CTCATTTTGTTAATGGTGCAAAAAAAAAAAAAAAAA,8.39 ± 0.32
6,ATGAAAAAAAGACATGCATGTAAATATAAATTGCTT [TGCATGCA_site504],9.48 ± 0.42
7,CATTATAAGAGACACACACACATATATAAATATGTA [CACACA_site6621],9.63 ± 0.38
8,TATTTAAAACTATACACATGCATTATATAAAGATAT [TGCATGCA_site702],8.62 ± 0.4
9,AGTAAGAGGCATTAAGCATGCATATTATTATAAGCA [TGCATGCA_site237],9.07 ± 0.5
10,TTTCATTTTTGAAGGTGTACTTAAAATTTATGTAAT [XGTACX_site6671],8.41 ± 0.54
11,AAAATTTATTATCTATATAATAATATGAAACAAAAC [GTGCAC_negctrl_site731],8.58 ± 0.51
12,AAAAAAACATAAAATACACACAACCTTAAGAATGTA [CACACA_site3293],9.12 ± 0.38
13,TTATAAAATATATATACATGCACAAAATTATAAGTA [TGCATGCA_site294],8.88 ± 0.45
14,AATCAACATTTTTTTTGCTATTTTTTTTTTTAATTA [CACACA_negctrl_site891],8.53 ± 0.61
15,TATAATATAAAATATGCACACATTGGAATGGGAGAA [CACACA_site3746],9.1 ± 0.38
16,GACAATATTAAAACATGTACATGCATTTTATGAATA [XGTACX_site553],8.81 ± 0.42
17,TATTGTAAAGTGTCATTATTACGTTATATTATATAT [CACACA_negctrl_site98],8.89 ± 0.4
18,TAAAAAAAAGGAAATACATGCATCTACATATATATA [TGCATGCA_site500],8.73 ± 0.38
19,AAAAACTAACTGTATTGTACTCTCTTATAAATTCAC [XGTACX_site8967],8.7 ± 0.45

row,Sequence,gcPBM binding intensity (ln)
1,ATATAGGTAATAATAATACACACGGTGAAATATAGA [CACACA_site4040],9.16 ± 0.5
2,AAAAAAAAAATATATATATATATATAATATATATAT [TGCATGCA_negctrl_site329],9.09 ± 0.72
3,ATATATTTCATTTTTGTACACACAACGTTGGAGGGT [CACACA_site8999],9.15 ± 0.5
4,TATAATTTAAAATACACACACATATATATAATATAT [CACACA_site2000],9.31 ± 0.24
5,TCCAAATGAAAAAATTGTACATATTTTATCATATAT [XGTACX_site6159],8.55 ± 0.52
6,TAAATACATTTATATACACACCTATATATATATATA [CACACA_site5137],9.355 ± 0.078
7,ATAAGAAATTTCATACGTACATAAATAAATATATAT [XGTACX_site2932],8.78 ± 0.42
8,TATAAAGACACGTACACACACTAAGTATATCCAATA [CACACA_site6855],9.46 ± 0.33
9,GTATGATGTGAACATTGTACGAATGAATATATCTAA [XGTACX_site3789],8.8 ± 0.38
10,ATATAAGTATACACATGTACATATTTCTTATGTATA [XGTACX_site2854],8.87 ± 0.43
11,AAAAAATTTATAAAAGCACACAAAATAAAAAAAAAT [CACACA_site8420],8.95 ± 0.54
12,AAAATGTTAAATATTAAATATGAAACAAAAAAAAAA [GTGCAC_negctrl_site211],8.49 ± 0.53
13,AAAATTATTTTTATGTGTACTTATTTATTATTTATA [XGTACX_site6665],8.79 ± 0.46
14,TTGTATTCCTTTTACAACTACCATGAAGAGAATTTT [CACACA_negctrl_site1286],8.38 ± 0.3
15,TGATAACCTAATAATACACACACATGAATATATATA [CACACA_site8226],9.38 ± 0.32
16,TAAAAAAAATAGCATACACACATATATACATATATA [CACACA_site658],8.98 ± 0.41
17,GTCGCCAAAAGGTGTACACATAATGCATTATCATAA [CACACA_site6112],8.97 ± 0.47
18,TACACATAATATAATGCATGTGTGATGTATGTTTAA [TGCATGCA_site697],8.98 ± 0.31
